Experimental data: the supplement of paper PMC12217912
The list shows a part of the results. Sequences were assembled here from the parent chain. Inactive controls read about 0.05.

B1: TEV protease; numbered along this chain (parent)
chain: MGESLFKGPRDYNPISSSICHLTNESDGHTTSLYGIGFGPFIITNKHLFRRNNGTLVVQSLHGVFKVKDTTTLQQHLVDGRDMIIIRMPKDFPPFPQKLKFREPQREERICLVTTNFQTKSMSSMVSDTSCTFPSGDGIFWKHWIQTKDGQCGSPLVSTRDGFIVGIHSASNFTNTNNYFTSVPKNFMELLTNQEAQQWVSGWRLNADSVLWGGHKVFMVKPEEPFQPVKEATQL

Variants of: B1
Test: raw area under fraction-flipped curve 0-4 h after induction (AUC4h, not background-subtracted), DNA-recorder readout of cleavage of the substrate (dimensionless); higher = more cleavage of the substrate by the protease variant
Settings: temperature: 34 °C; time window: 0-4 h after rhamnose induction
Method: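 In vivo DNA recorder in E. coli TOP10(DE3) ΔrhaA at 34 °C. Each TEVp single-site mutant (parent TEVp 0) is paired with a single-site variant of the 7-mer TEVs (canonical ENLYFQ|S). The substrate sits between flexible linkers in a Bxb1-sfGFP-TEVs-SsrA fusion, so cleavage stabilises Bxb1 and speeds flipping of a recombination array, read by NGS. The value is the raw area under the fraction-flipped curve over 0-4 h after rhamnose induction (AUC4h), with ≥20 reads per time point. It is not background-subtracted; inactive controls average about 0.047.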
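Note: Bxb1 expression induced with 0.2% (w/v) L-rhamnose at OD600 near 0.5, cultures sampled hourly, flipped fraction per protease–substrate barcode pair counted by paired-end Illumina sequencing.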

Row | Variant | area with substrate ENLYCQS | area with substrate ENLYDQS | area with substrate ENLYEQS | area with substrate ENLYGQS | area with substrate ENLYHQS | area with substrate ENLYIQS | area with substrate ENLYKQS | area with substrate ENLYLQS | area with substrate ENLYMQS | area with substrate ENLYNQS | area with substrate ENLYPQS | area with substrate ENLYQQS | area with substrate ENLYRQS | area with substrate ENLYSQS | area with substrate ENLYTQS | area with substrate ENLYYQS | area with substrate ENLYVQS | area with substrate ENLYWQS
1 | I15W | 0.0841 | 0.0581 | 0.0664 | 0.0715 | 0.0715 | 0.106 | 0.0674 | 0.0914 | 0.0829 | 0.0665 | 0.0728 | 0.058 | 0.0579 | 0.0601 | 0.0853 | 0.0569 | – | –
2 | N52R | 0.0727 | 0.0542 | – | – | 0.0632 | – | 0.0563 | – | – | 0.0599 | – | 0.0454 | – | 0.0463 | – | 0.0479 | 0.0682 | –
3 | H215E | 0.063 | – | 0.0654 | 0.0538 | 0.0646 | 0.0576 | 0.0542 | 0.045 | 0.0562 | 0.0626 | 0.0743 | – | 0.0467 | 0.0504 | – | – | – | –
4 | F95G | 0.0671 | – | 0.0619 | 0.0442 | 0.0577 | 0.0684 | – | – | 0.0582 | 0.058 | 0.0482 | – | 0.0321 | – | – | – | 0.0722 | –
5 | G54Y | 0.0592 | 0.0685 | 0.0643 | – | 0.0566 | 0.0837 | – | 0.0303 | 0.0625 | – | 0.0829 | 0.0712 | 0.0562 | 0.0385 | – | – | – | 0.0724
6 | N175P | 0.0675 | 0.0509 | 0.0515 | – | – | 0.0769 | 0.0532 | – | 0.0612 | 0.0608 | – | 0.0507 | 0.0353 | – | – | 0.0595 | – | –
7 | R204W | 0.0973 | 0.0336 | 0.0681 | 0.0713 | 0.0713 | 0.168 | 0.057 | 0.116 | 0.0871 | 0.0718 | 0.0874 | 0.0651 | 0.0579 | 0.0739 | 0.0804 | 0.0253 | 0.12 | 0.0724
8 | W199D | 0.0671 | – | 0.0549 | 0.0354 | 0.0591 | – | 0.0825 | 0.0513 | 0.0558 | 0.061 | – | 0.0688 | 0.0726 | 0.0779 | 0.0548 | – | 0.0579 | 0.0731
9 | C20S | 0.0607 | – | 0.059 | 0.065 | 0.0556 | 0.0959 | 0.0512 | 0.0616 | 0.0655 | 0.0576 | 0.0631 | 0.0568 | – | 0.0696 | 0.0696 | 0.0797 | 0.0874 | 0.0871
10 | C20D | 0.0492 | – | 0.0194 | 0.0432 | 0.0473 | – | – | – | 0.0559 | 0.0476 | 0.0506 | 0.0491 | 0.0476 | 0.0482 | – | – | 0.0415 | 0.0254
11 | K185I | 0.108 | – | 0.0697 | 0.0651 | 0.0655 | 0.131 | 0.0559 | – | – | 0.0633 | 0.0733 | 0.0646 | – | – | – | – | – | 0.0884
12 | K185E | 0.115 | 0.0389 | 0.0746 | 0.0641 | 0.0696 | 0.151 | 0.0306 | – | 0.126 | 0.0583 | 0.0701 | 0.0693 | 0.0681 | 0.107 | 0.0845 | 0.041 | 0.145 | 0.0947
13 | L61K | 0.0878 | 0.0573 | 0.0834 | – | 0.0569 | 0.113 | 0.0662 | 0.0072 | 0.105 | 0.0766 | – | – | 0.0707 | – | – | – | 0.121 | –
14 | C131T | 0.107 | 0.0577 | 0.0938 | – | 0.0892 | 0.124 | 0.0556 | 0.0932 | – | 0.0812 | 0.0884 | 0.0803 | 0.0748 | 0.0693 | – | – | 0.136 | 0.0615
15 | I19F | 0.0693 | 0.0983 | 0.0492 | 0.0587 | 0.0631 | 0.0783 | 0.0621 | – | 0.064 | 0.0634 | 0.0633 | 0.0593 | 0.0604 | – | 0.0633 | 0.0646 | 0.0649 | 0.0513
16 | G213M | 0.0538 | 0.0829 | 0.0569 | 0.055 | 0.0606 | 0.0866 | – | – | 0.0712 | 0.0588 | 0.0633 | 0.0402 | 0.0405 | 0.0699 | 0.0494 | 0.0515 | 0.0033 | 0.0558
17 | S17N | 0.0807 | 0.055 | 0.0581 | 0.0663 | 0.072 | 0.105 | 0.0433 | 0.0825 | – | 0.0505 | 0.0563 | – | 0.0573 | 0.0864 | – | 0.0654 | 0.101 | 0.0823
18 | R102W | 0.0569 | 0.0497 | 0.0379 | 0.0466 | 0.0674 | – | 0.0358 | 0.0255 | – | 0.0476 | 0.0439 | 0.0463 | 0.0367 | 0.0382 | – | 0.0343 | 0.0016 | 0.0468
19 | H143W | 0.0072 | 0.0517 | 0.061 | 0.0631 | 0.0595 | 0.0816 | 0.0331 | – | 0.0601 | 0.124 | 0.0505 | – | – | 0.0495 | – | 0.0675 | 0.0369 | 0.0527
20 | F187H | 0.063 | 0.0724 | 0.0649 | 0.0338 | 0.0525 | 0.0619 | 0.0709 | – | 0.111 | 0.0627 | 0.0781 | – | 0.0587 | 0.059 | 0.0619 | – | 0.07 | 0.069
21 | N13A | 0.0939 | 0.0574 | 0.0745 | – | 0.076 | 0.109 | 0.0688 | – | 0.0802 | 0.0665 | 0.0739 | 0.0488 | 0.0675 | 0.0765 | 0.0457 | 0.0591 | 0.101 | 0.0886
22 | G35P | 0.0313 | – | 0.015 | – | – | 0.0496 | – | – | – | – | – | 0.047 | 0.0453 | – | – | – | – | 0.04
23 | K68L | 0.0768 | 0.0686 | 0.0735 | 0.0577 | 0.0682 | – | – | 0.0829 | 0.0803 | 0.063 | – | – | 0.0517 | 0.0403 | – | – | 0.107 | 0.0699
24 | I145Y | 0.0829 | 0.0626 | 0.0626 | 0.0677 | 0.0581 | 0.0801 | 0.0476 | – | 0.0438 | 0.0608 | 0.0697 | 0.0563 | 0.0434 | 0.0753 | – | 0.0513 | 0.0876 | 0.0656
25 | I139Y | 0.0914 | 0.0692 | – | 0.0518 | 0.0633 | 0.0747 | 0.0745 | 0.0842 | 0.067 | 0.0643 | 0.0806 | – | – | 0.0714 | 0.0231 | – | 0.105 | 0.0794
26 | Q151L | 0.0606 | – | 0.0609 | 0.071 | 0.0615 | 0.119 | 0.0359 | – | – | 0.0791 | 0.0694 | 0.062 | 0.0695 | 0.0724 | 0.0666 | 0.0595 | 0.095 | 0.0715
